Results filed as inconclusive are left out. For part of its entries the source gives two or more results. They are shown here; other results are not. An entry can have further records. Values that stand side by side differ, and nothing given here explains why; dose, time, organism, isomer or construct need not be as stated for each record.
Test system: B6C3F1 mice, colon carcinoma 38 s.c., T/C
Assay: NCI In Vivo Anticancer Drug Screen. Data for tumor model Colon Carcinoma 38 (subcutaneous) in B6C3F1 mice
Settings: endpoint: median survival time; dose: 200.0 mg/kg/injection; schedule: Q01DX001 (ip); vehicle: saline; higher = longer survival
Protocol: The antitumor activity of compounds was measured in mice bearing transplantable tumors. Survival or tumor size were measured and the results are expressed as the measurement made in the treated group (T) divided by the measurement made in the vehicle treated control group (C). The tumor model used in this assay is Colon Carcinoma 38 (subcutaneous) in B6C3F1 mice

In the case of `CCN(CC)CCOC(=O)Cc1cccc2c(=O)cc(-c3ccccc3)oc12`, the T/C was 100 % of control and 169 % of control.

Source: PubChem BioAssay AID214 (DTP/NCI, 2004)
